From PMC4336329 (PLoS ONE, 2015) come the findings set out here.

In all, about 310,000 compounds went through this assay and about 14,000 (4.5%) showed an effect of 50% or more. The effect is printed as a negative number. This is one part of the list.
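Note: peak tail current of the secondary pulse compared with the same well before compound.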

human ether-à-go-go-related gene (hERG) potassium channel, sequence (Q12809 whole entry, looked up): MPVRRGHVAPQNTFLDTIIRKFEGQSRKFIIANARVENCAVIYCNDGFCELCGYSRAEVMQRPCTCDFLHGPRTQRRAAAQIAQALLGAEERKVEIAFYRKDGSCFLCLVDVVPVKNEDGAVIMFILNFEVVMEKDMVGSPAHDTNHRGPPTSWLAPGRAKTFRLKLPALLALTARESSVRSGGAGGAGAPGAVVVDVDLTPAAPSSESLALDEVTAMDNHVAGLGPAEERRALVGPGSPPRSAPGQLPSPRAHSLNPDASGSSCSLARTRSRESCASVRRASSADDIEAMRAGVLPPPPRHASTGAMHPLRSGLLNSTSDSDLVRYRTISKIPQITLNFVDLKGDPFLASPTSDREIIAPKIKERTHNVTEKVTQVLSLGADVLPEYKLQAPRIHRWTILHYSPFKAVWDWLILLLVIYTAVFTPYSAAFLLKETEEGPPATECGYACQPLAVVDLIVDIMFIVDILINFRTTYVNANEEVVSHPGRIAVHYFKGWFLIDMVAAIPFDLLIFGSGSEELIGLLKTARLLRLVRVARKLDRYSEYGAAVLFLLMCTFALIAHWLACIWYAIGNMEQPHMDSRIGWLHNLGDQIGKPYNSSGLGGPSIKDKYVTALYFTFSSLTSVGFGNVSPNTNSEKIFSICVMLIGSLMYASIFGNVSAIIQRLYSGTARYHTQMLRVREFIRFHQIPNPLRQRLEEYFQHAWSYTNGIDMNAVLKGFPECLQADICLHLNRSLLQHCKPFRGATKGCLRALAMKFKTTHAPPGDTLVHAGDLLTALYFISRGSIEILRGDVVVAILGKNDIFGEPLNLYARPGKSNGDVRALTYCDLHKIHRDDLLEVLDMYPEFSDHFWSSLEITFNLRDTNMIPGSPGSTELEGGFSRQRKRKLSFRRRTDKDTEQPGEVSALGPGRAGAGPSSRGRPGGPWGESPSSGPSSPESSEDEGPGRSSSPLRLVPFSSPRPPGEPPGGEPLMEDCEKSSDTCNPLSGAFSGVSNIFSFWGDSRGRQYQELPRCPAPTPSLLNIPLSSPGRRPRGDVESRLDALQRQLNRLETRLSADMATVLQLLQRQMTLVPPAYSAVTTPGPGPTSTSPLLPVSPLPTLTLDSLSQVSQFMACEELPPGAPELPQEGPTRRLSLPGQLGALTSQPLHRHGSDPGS

The experiment has as its target human ether-à-go-go-related gene (hERG) potassium channel (human, UniProt Q12809). Put plainly: primary screen, population patch clamp on CHO cells stably expressing hERG.
In the case of `C#CCNC(=O)C1=C[C@@H](C2CCCCC2)C[C@@H](OCc2ccc(CO)cc2)O1`, the “hERG current change (%, negative = inhibition) at 10uM” value was -12.6%.
The figure for `COc1cc2nc(NC(=O)c3ccco3)sc(=O)c2cc1OC` is -6.97%.
For `CN1/C(=C\C=N\O)C(C)(C)c2ccccc21`, the “hERG current change (%, negative = inhibition) at 10uM” value came out at 17.1%.
The figure for `Cc1ccc(NC(=O)C[n+]2ccccc2)cc1[N+](=O)[O-].[Cl-]` is 2.48%; for `O=C(NCc1cccnc1)C1CCN(S(=O)(=O)N2CCOCC2)CC1` it is -5.95%; for `O=C(COC(=O)C1CCC1)Nc1cc(S(=O)(=O)N2CCCCC2)ccc1Cl` it is -15.8%.
The figure for `C=CCSc1nnc2nc3[nH]c4c(C)cccc4c3nn12` is 4.32%; for `COC(=O)c1ccc(COc2ccc(/C=C(\C#N)c3nc4ccccc4[nH]3)cc2OC)o1` it is 2.96%; for `COc1ccccc1NC(=O)CSc1nnc(-c2ccco2)n1Cc1ccco1` it is -65.4%.
The figure for `CN(C(=O)CCN1C(=O)c2ccccc2C1=O)C1CCCCC1` is 0.926%; for `O=C(c1cccn(Cc2ccc(Cl)c(Cl)c2)c1=O)N1CCOCC1` it is -5.03%.
For `CCN1CCN(C(=O)C2CC(c3ccc(F)cc3)=NO2)CC1` (stereo not shown), the “hERG current change (%, negative = inhibition) at 10uM” value is on record as -9.34%.
The figure for `CN1C(C(=O)Nc2ccccn2)=C(O)c2ccccc2S1(=O)=O` is -4.55%; for `O=C(CS(=O)(=O)c1ccc2ccccc2c1)N1CCCCCC1` it is 2.23%; for `COc1cccc(C(=O)Nc2nnc(SCC(=O)NC3CC3)s2)c1` it is 5.18%.
Consider `COc1cccc(Nc2ccccc2C(=O)O)c1`, for which the “hERG current change (%, negative = inhibition) at 10uM” value was 19.2%.
As for `Cc1cc(Cl)ccc1OC(C)C(=O)Nc1ccc(S(=O)(=O)Nc2cnc3ccccc3n2)cc1` (stereo not shown), the “hERG current change (%, negative = inhibition) at 10uM” value was 5.55%.
For `CC(C)(C)c1nnc(NC(=O)CCS(=O)(=O)Cc2ccccc2)s1`, the “hERG current change (%, negative = inhibition) at 10uM” value is on record as 10.8%.
The figure for `NC(=O)N/N=C/c1coc2ccc3ccccc3c2c1=O` is 12.3%; for `CCc1c(C)nc(SCC(=O)Nc2ccc(Br)cc2)[nH]c1=O` it is -1.51%; for `Cc1[nH]n(-c2nc(-c3ccccc3F)cc(=O)[nH]2)c(=O)c1CCO` it is 12.4%.
Turning to `CCOc1cc(S(=O)(=O)N(CC)CC)c(OCC)cc1-n1cnnn1`, the “hERG current change (%, negative = inhibition) at 10uM” value was -27.6%.
The figure for `COc1cccc(CNC(=O)N[C@@H](CC(C)C)C(=O)O)c1` is 10.9%; for `CNc1ccc(C(=O)N2CCN(S(=O)(=O)c3ccc4c(c3)OCCCO4)CC2)cc1[N+](=O)[O-]` it is -31.9%.
The figure for `C=CCCC(=O)N1CCC(n2nccc2NC(=O)c2ccccc2C)CC1` is -32.1%.
